Data taken from the supplement of paper PMC10126150.
Sequences with one replicate were seen in a single cluster, so their values are uncertain.
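Further: ATP exposure 15 min at 22 °C before imaging.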

What follows are sequences tested on ATP (assay: switch fluorescence ratio, 500 uM ATP over buffer (Cy3 cluster intensity, sum of 5 cycles each) (fold (ratio)); higher = stronger signal-on switching upon ATP binding; sequences stand for … in TCGTCGGCAGCGTCAGATGTGTATAAGAGACAGTTTTTTTTTTTTTTTTTTTTTTTTT…TC). Settings: aptamer strand: ATP DNA aptamer (quencher-CACCTGGGGGAGTATTGCGGAGGAAGG + anchor), 100 nM annealed; ATP concentration: 500 uM; one replicate.
How it was run: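 After annealing to 100 nM quencher-labelled ATP aptamer, Cy3-labelled switching-strand clusters on a modified Illumina MiSeq flow-cell were imaged in selection buffer. A second image followed after 15 min with 500 uM ATP at 22 °C, and five such buffer/ATP cycles were done, each separated by NaOH stripping and re-annealing. The fluorescence ratio, averaged per switch-domain sequence, is summed target-cycle over summed buffer-cycle Cy3 intensity per cluster, with clusters outside 100-1000 RFU excluded.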
CTTTATAGCG was tested, and the switch fluorescence ratio was 1.01. Work on AGTCAGGGGA yielded a switch fluorescence ratio of 1.04. Sequence AATTACGACG has a switch fluorescence ratio of 1.1. In the case of CGTTTCAATA, the switch fluorescence ratio is reported as 1.1. Work on TTAACGGATA yielded a switch fluorescence ratio of 0.998. Work on TCATTGGACG yielded a switch fluorescence ratio of 1.06. Sequence GCCCTACAGC has a switch fluorescence ratio of 1.06. Work on GAATTTAATC yielded a switch fluorescence ratio of 1.01. Work on CTAGTGCGTG yielded a switch fluorescence ratio of 0.96. With TTCAGGCACA the switch fluorescence ratio was 1.11. Sequence TCTAAGCATT has a switch fluorescence ratio of 1.1. With AACATTCCAT the switch fluorescence ratio was 1.04. CGGTTGGACC gave a switch fluorescence ratio of 0.997. Work on CTAGGACG yielded a switch fluorescence ratio of 1. With CGTTAAGAGC the switch fluorescence ratio was 1.02. ATATGGGCCT showed a switch fluorescence ratio of 1. AAGTCTATTA gave a switch fluorescence ratio of 1.05. GGATATTTT was tested, and the switch fluorescence ratio was 0.955. With CAAGGTTTTG the switch fluorescence ratio was 1.01. GACACGCGGC gave a switch fluorescence ratio of 1.12. Sequence CAGGCTGAGC has a switch fluorescence ratio of 1.04. Work on CTGCCTATTC yielded a switch fluorescence ratio of 1.01. ACGTACCTCC was tested, and the switch fluorescence ratio was 1.49. For GACAGCGTAA, the switch fluorescence ratio was 1.01. AACGAGGATA showed a switch fluorescence ratio of 0.97. For TTTGGGTTGT, the switch fluorescence ratio was 1.04. GTGTGGGATT showed a switch fluorescence ratio of 0.982. GTGCACGTGC showed a switch fluorescence ratio of 1.04. TAGGTGAAG gave a switch fluorescence ratio of 0.966. AGAGAGGCTC showed a switch fluorescence ratio of 0.817. In the case of TGTTCCTCCA, the switch fluorescence ratio is reported as 1.71. With TCGCGACCTA the switch fluorescence ratio was 0.999. Sequence GGGAGTTCTT has a switch fluorescence ratio of 0.975. Work on AAAAGATAA yielded a switch fluorescence ratio of 0.972. AGGCGAGCTT gave a switch fluorescence ratio of 0.953. Sequence ATGGGTAAGA has a switch fluorescence ratio of 0.985. ACTTCAAACC gave a switch fluorescence ratio of 1.11. TTACCATTAT was tested, and the switch fluorescence ratio was 1.04. CCCGTCATCC showed a switch fluorescence ratio of 1.45. In the case of CACATAGGTG, the switch fluorescence ratio is reported as 1.56. With CGATTATGTC the switch fluorescence ratio was 0.961. With AGACTCTTTA the switch fluorescence ratio was 0.98. Sequence AGCTTTCAGG has a switch fluorescence ratio of 1.04. AAACGAAATC gave a switch fluorescence ratio of 1.07. GATAATGATA gave a switch fluorescence ratio of 0.988. GCCCCCGTAA showed a switch fluorescence ratio of 4.28. With GCCTGGGTGG the switch fluorescence ratio was 1.08. With TCTTTATGCG the switch fluorescence ratio was 0.955. Sequence TGAGTAGAGA has a switch fluorescence ratio of 0.978. GAGAGCCTA was tested, and the switch fluorescence ratio was 0.975. With GTTTGGTTTC the switch fluorescence ratio was 1. In the case of AATTGTCGAG, the switch fluorescence ratio is reported as 1. AAGATCAGT showed a switch fluorescence ratio of 1.06. GGCGGGGTCC gave a switch fluorescence ratio of 1.03. In the case of ACCATATTGC, the switch fluorescence ratio is reported as 1.1. Work on CCAGGTTTT yielded a switch fluorescence ratio of 1.07. GGTTCCTTTT showed a switch fluorescence ratio of 1.02. In the case of GGTCAGGCCG, the switch fluorescence ratio is reported as 1.04. For GGAGCGTATG, the switch fluorescence ratio was 0.991. AGGATGTGCG was tested, and the switch fluorescence ratio was 0.972. GGACTGGGTT showed a switch fluorescence ratio of 0.99. CGACAGCTGA showed a switch fluorescence ratio of 1.12. GCGAGACCC gave a switch fluorescence ratio of 1.05. CTCCAATTAT showed a switch fluorescence ratio of 1.21. Sequence ACAGGGTGCT has a switch fluorescence ratio of 1.09. Work on TCATGCA yielded a switch fluorescence ratio of 1.06. In the case of TGTATCTTTG, the switch fluorescence ratio is reported as 1. For GGGAACTTCG, the switch fluorescence ratio was 1.01. AAGACTAGGG was tested, and the switch fluorescence ratio was 0.813. In the case of AGCATCTACC, the switch fluorescence ratio is reported as 1.22. GATCGGCGCA gave a switch fluorescence ratio of 1.06. CGCTGCAGCC gave a switch fluorescence ratio of 1.03. In the case of CCATCTATTG, the switch fluorescence ratio is reported as 1.02. For GAGTGAGCGA, the switch fluorescence ratio was 0.97. Work on CCAGGAGGTC yielded a switch fluorescence ratio of 0.987. GACAAAAACG gave a switch fluorescence ratio of 1.02. With TTGACCACTA the switch fluorescence ratio was 1.07. Work on CGCTTATAGC yielded a switch fluorescence ratio of 1.11. In the case of CGGTTCCAAG, the switch fluorescence ratio is reported as 0.939. Sequence GGTACGGGAT has a switch fluorescence ratio of 1.09. Sequence TGATCGTTGA has a switch fluorescence ratio of 0.979. Work on TAAATCCTG yielded a switch fluorescence ratio of 1.02. For AGATAAATCT, the switch fluorescence ratio was 1.04. TCGCAAGGAT showed a switch fluorescence ratio of 1.08. AGTGCGGTAT showed a switch fluorescence ratio of 1.04. With CAGAGTGT the switch fluorescence ratio was 0.985. Work on TTGGGTTCTA yielded a switch fluorescence ratio of 0.979. ATAAACTGGG gave a switch fluorescence ratio of 1.09. For ACGTTCGATT, the switch fluorescence ratio was 0.979. ACGTACATG was tested, and the switch fluorescence ratio was 1.57. TTTGTTGCAC was tested, and the switch fluorescence ratio was 0.979. TGACAACGTG gave a switch fluorescence ratio of 1.03. TAGATGCTTA showed a switch fluorescence ratio of 0.983. For TGTGGATTCC, the switch fluorescence ratio was 1.02. Sequence AAGAGAGGGC has a switch fluorescence ratio of 0.969. In the case of CAGAGACGTG, the switch fluorescence ratio is reported as 1.02. For TCTGGAGTGC, the switch fluorescence ratio was 1.33. In the case of ATCGCCAACT, the switch fluorescence ratio is reported as 0.982. AACCCCTATT showed a switch fluorescence ratio of 1.01. For GGACATGAAC, the switch fluorescence ratio was 1.06. TAAGTTGCTA gave a switch fluorescence ratio of 1. Sequence GGGATGGCTA has a switch fluorescence ratio of 0.968. For TAGGTAAAGC, the switch fluorescence ratio was 0.973. Work on GCTGCGGTAT yielded a switch fluorescence ratio of 1.02. In the case of TGGTGTTTAT, the switch fluorescence ratio is reported as 1.01. ATCATCATTA gave a switch fluorescence ratio of 0.972. CAGCTAGGAG showed a switch fluorescence ratio of 0.996. In the case of GCGGGCCGGT, the switch fluorescence ratio is reported as 1.05. Sequence CGGCTGCAT has a switch fluorescence ratio of 1.47. For TGAAAGGTAT, the switch fluorescence ratio was 1.03. Sequence ATTGCGCGCA has a switch fluorescence ratio of 1.01. With ATCGCTAAGG the switch fluorescence ratio was 0.988. For CGAGCGTTTG, the switch fluorescence ratio was 1.06. Sequence CCACATTTAA has a switch fluorescence ratio of 1. Sequence TCCTGCTGAT has a switch fluorescence ratio of 0.993. ATCGAGGGTA was tested, and the switch fluorescence ratio was 0.952. TTCTGGGTAT gave a switch fluorescence ratio of 0.976. In the case of GGCCTTCTAC, the switch fluorescence ratio is reported as 1.19. In the case of TTGCGCTTCA, the switch fluorescence ratio is reported as 1.04. CGTGGATTAA gave a switch fluorescence ratio of 0.95. AGGGTACAC was tested, and the switch fluorescence ratio was 1.02. ATGATAAAGT was tested, and the switch fluorescence ratio was 0.968. CACCCTTTTG showed a switch fluorescence ratio of 1.04. GCCATAGTGC was tested, and the switch fluorescence ratio was 1.06. With ACAGGGTTAT the switch fluorescence ratio was 1.03. With TTGCTACTAA the switch fluorescence ratio was 0.996. For GCGCCTGGAG, the switch fluorescence ratio was 1. ACATATTGGG gave a switch fluorescence ratio of 1.02. For AGGTTTCCGG, the switch fluorescence ratio was 0.965. With CGAGTCTTGG the switch fluorescence ratio was 0.986. With AGAAATACCT the switch fluorescence ratio was 1.5. AAGTGCATAG gave a switch fluorescence ratio of 1.03. For GATGACCCCG, the switch fluorescence ratio was 1.05. In the case of GGTTATGGAC, the switch fluorescence ratio is reported as 0.962. In the case of GAAAATAATG, the switch fluorescence ratio is reported as 0.999. In the case of CTTATGCGGG, the switch fluorescence ratio is reported as 1. With TGGGGTGTGC the switch fluorescence ratio was 0.951. GCAAGGTTAA gave a switch fluorescence ratio of 0.973. For TAAGCGCCGG, the switch fluorescence ratio was 1.04. CTGGGTCCTT was tested, and the switch fluorescence ratio was 1.02. AGCACAACGG was tested, and the switch fluorescence ratio was 1.05. With CTCTAGACCC the switch fluorescence ratio was 1.14. GTTAAGTGTT gave a switch fluorescence ratio of 1. AGAAGGAGAG was tested, and the switch fluorescence ratio was 1.02. Work on TATCATATAT yielded a switch fluorescence ratio of 0.97. In the case of TTGGCAGTGC, the switch fluorescence ratio is reported as 1.03. Work on GTGTAACGGT yielded a switch fluorescence ratio of 0.995. Sequence ATCCTCATCT has a switch fluorescence ratio of 1.03. ATGACTACGG showed a switch fluorescence ratio of 1.16. Sequence CAAAAAAGGC has a switch fluorescence ratio of 1.05. AGGAGGTGG gave a switch fluorescence ratio of 0.94. Sequence TCCATCGTAT has a switch fluorescence ratio of 1.07. With CTTTAGTACC the switch fluorescence ratio was 1.04.
